Results reported in article PMC4336329 (PLoS ONE, 2015).
Out of some 310,000 compounds screened, about 2,200 (0.71%) showed an effect of 50% or more. The effect is printed as a negative number. Some of the results follow.

Biological target: human ether-à-go-go-related gene (hERG) potassium channel (human, UniProt Q12809)
Assay: primary screen, population patch clamp on CHO cells stably expressing hERG

human ether-à-go-go-related gene (hERG) potassium channel, sequence (Q12809 whole entry, looked up): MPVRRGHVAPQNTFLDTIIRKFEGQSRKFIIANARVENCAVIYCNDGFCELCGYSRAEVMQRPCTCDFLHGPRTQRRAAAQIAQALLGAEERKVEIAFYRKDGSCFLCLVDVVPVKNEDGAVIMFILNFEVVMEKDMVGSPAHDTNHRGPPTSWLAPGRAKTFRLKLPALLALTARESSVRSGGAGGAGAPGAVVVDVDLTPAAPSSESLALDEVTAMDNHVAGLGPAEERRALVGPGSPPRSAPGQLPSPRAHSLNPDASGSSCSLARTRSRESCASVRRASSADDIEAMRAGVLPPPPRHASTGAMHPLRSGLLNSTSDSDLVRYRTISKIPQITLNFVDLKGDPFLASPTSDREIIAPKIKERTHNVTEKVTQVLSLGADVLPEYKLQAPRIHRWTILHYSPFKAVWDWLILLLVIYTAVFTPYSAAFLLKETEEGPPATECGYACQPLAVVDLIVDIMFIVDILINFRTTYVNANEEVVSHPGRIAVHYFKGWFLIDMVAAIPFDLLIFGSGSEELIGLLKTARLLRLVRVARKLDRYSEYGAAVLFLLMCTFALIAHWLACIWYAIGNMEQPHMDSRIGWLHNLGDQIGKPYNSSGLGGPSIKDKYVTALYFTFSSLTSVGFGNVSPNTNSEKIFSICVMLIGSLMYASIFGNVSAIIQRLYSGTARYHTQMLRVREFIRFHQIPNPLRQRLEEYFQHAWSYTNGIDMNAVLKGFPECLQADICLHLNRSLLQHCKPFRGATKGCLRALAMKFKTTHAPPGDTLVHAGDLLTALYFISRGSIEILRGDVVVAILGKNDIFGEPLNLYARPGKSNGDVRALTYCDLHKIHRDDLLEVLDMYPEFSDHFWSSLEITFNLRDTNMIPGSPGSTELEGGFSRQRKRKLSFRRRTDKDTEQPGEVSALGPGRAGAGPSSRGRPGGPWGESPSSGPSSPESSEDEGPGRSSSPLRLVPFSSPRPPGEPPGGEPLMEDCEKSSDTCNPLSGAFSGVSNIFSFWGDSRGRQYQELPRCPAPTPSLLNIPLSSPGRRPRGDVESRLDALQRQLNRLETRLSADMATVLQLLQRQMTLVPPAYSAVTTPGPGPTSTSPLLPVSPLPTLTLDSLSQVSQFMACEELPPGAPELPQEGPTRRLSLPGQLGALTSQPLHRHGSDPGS

| SMILES | hERG current change (%, negative = inhibition) at 1uM |
| --- | --- |
| CCOc1ccc2[nH]c(=O)c(CN(CCO)C(=O)c3ccc(Br)cc3)cc2c1 | 9.68% |
| CN(CC(=O)Nc1cccc(F)c1)C(=O)c1cccc2ccccc12 | 11.4% |
| OC(c1ccccc1)c1cccnc1 (stereo not shown) | 1.72% |
| CCOC(=O)c1ccc(NC(=O)c2ccc(NC(=O)C3CCCO3)cc2)cc1 (stereo not shown) | 2.09% |
| CC(=O)N/N=C/c1cc(C)n(-c2ccc(Br)cc2)c1C | 1.14% |
| CC(/C=C1\SC(=S)N(NC(=O)c2ccc(C)cc2)C1=O)=C\c1ccccc1 | 12.5% |
| CCOc1cc(/C=C2/NC(=O)NC2=O)cc(Br)c1OCc1ccc(C(=O)O)cc1 | 6.09% |
| COC(=O)c1ccc(COc2ccc(/C=N/NC(=O)C(=O)Nc3ccc(OC)cc3)cc2OC)o1 | 9.15% |
| Cc1c(Cl)cccc1NC(=O)C(=O)NNS(=O)(=O)c1ccc(F)cc1 | 3.63% |
| O=S(=O)(c1cc(F)ccc1F)N1CCC2(CC1)OCCN2S(=O)(=O)c1cccs1 | 12% |
| Cc1ccc(NC(=O)C2COc3ccccc3O2)c(C)c1 (stereo not shown) | 13.6% |
| CCC(=O)Nc1cccc(C(=O)c2ccc(C)c(C)c2)c1 | 7.94% |
| CCc1ccc(CNC(=O)c2ccc(OC)c(OC3CCN(C(C)C)CC3)c2)nc1 | 11.7% |
| COC(=O)CCCC1=CC2=C(c3ccccc3)C(=O)C(C)(OC(=O)C3CCCC3)C(=O)C2=CN1CCc1c[nH]c2ccccc12 (stereo not shown) | 8.22% |
| COCCCn1c(-c2ccccc2Cl)n[nH]c1=S | 18.5% |
| COc1ccccc1NC(=O)NC1CC(=O)N(c2ccc3c(c2)OCCO3)C1 (stereo not shown) | 0.982% |
| Cc1ccccc1CC1(CO)CCCN(C(=O)c2cc(Cl)ccc2F)C1 (stereo not shown) | 14.5% |
| CN(C)c1ccc(/C=N\NC(=O)c2ccc(Cn3cc(Cl)cn3)cc2)cc1 | 6.64% |
| COc1cc(OC)c(NS(=O)(=O)c2c(C)[nH]c(=O)[nH]c2=O)cc1Cl | 12.7% |
| COc1ccccc1NC(=O)COC(=O)COc1ccccc1F | 15.6% |
| COc1ccc(C2=NN(C(=O)c3ccncc3)C(c3ccccc3O)C2)cc1 (stereo not shown) | 8.12% |
| Cc1ccc(CNC(=O)c2ccc(Cn3cc(-c4ccc(C)cc4)nc3-c3ccncc3)cc2)cc1 | 9.38% |

| SMILES | hERG current change (%, negative = inhibition) at 1uM |
| --- | --- |
| Cc1ccc(S(=O)(=O)Nc2ccnc3ccccc23)cc1 | 9.35% |
| CCCCn1c(N)c(Sc2ccc(Cl)cc2)c(=O)[nH]c1=O | -5.13% |
| CCn1nc(NC(=O)C(C)(C)C)c2cc3cccc(C)c3nc21 | 5.4% |
| COC(=O)[C@@]12CCCCN1[C@H](c1ccc(-c3ccc(OC)cc3)cc1)[C@H]1C(=O)N(C)C(=O)[C@H]12.O=C(O)C(F)(F)F | 12.5% |
| O=C(Nc1cccc2ccccc12)c1ccc([N+](=O)[O-])cc1 | -0.953% |
| Cn1cccc1Cc1nnc(SCC(=O)Nc2nc3ccccc3s2)n1CCc1ccccc1 | 13.8% |
| Cc1cc(C)cc(N=C(NO)c2cccc([N+](=O)[O-])c2)c1 | 5.79% |
| CC(C)c1ccc(NC(=O)c2ccc3snnc3c2)cc1 | -1.54% |
| CCN(CC)CCn1c2c(c(SCC(=O)Nc3nc4ccccc4s3)nc1=O)CCCC2 | -10.4% |
| O=C(c1cccc([N+](=O)[O-])c1)N1CCN(S(=O)(=O)N2CCCCC2)CC1 | 3.45% |
| CS(=O)(=O)Nc1cccc(-c2cn3ccccc3n2)c1 | 5.39% |
| Cc1ccc(C2CC(C(F)(F)F)n3nc(C(=O)NCc4ccco4)cc3N2)cc1 (stereo not shown) | 22.4% |
| COC(=O)c1c(C)[nH]c(C(=O)OCC(=O)NCC(C)C)c1C | 14.4% |
| Brc1ccc(-c2csc(Nc3nc(-c4ccc(Br)cc4)cs3)n2)cc1 | 13.4% |
| Cc1cnc(NC(=O)CSc2ccccc2)s1 | -2.02% |
| C=CCn1c(CNc2ccc(C)cc2)nnc1SCC(=O)N/N=C/c1ccc(O)cc1 | -3.22% |
| COc1cccc(Oc2coc3c(CN4CCOCC4)c(O)ccc3c2=O)c1 | 0.344% |
| Cc1oc(-c2ccccc2F)nc1CS(=O)(=O)CC(=O)N1CCN(Cc2ccccc2)CC1 | 9.36% |
| O=C(Nc1ccc2c(c1)C(=O)N(c1ccccc1)C2=O)C1CCCO1 (stereo not shown) | 1.3% |
| CCO[C@@H]1OC(C(=O)Nc2ccccc2)=C[C@H](C2CC2)[C@H]1CCCO | 9.44% |
| Cc1nc2ccc(NC(=O)CCC3CCCC3)cc2s1 | 9.44% |
| O=C(Cc1ccccc1)Nc1ccc2[nH]ncc2c1 | 18.4% |

| SMILES | hERG current change (%, negative = inhibition) at 1uM |
| --- | --- |
| Cc1cccc(OCC(=O)NC2CC(C)(C)NC(C)(C)C2)c1 | 7.88% |
| Cc1ccc(NC(=O)CN2C(=O)S/C(=C\c3cccn3C)C2=O)cc1 | 12.5% |
| COc1ccc(-c2ccc3c(N)c(C(=O)c4cccc(OC)c4)sc3n2)cc1 | -0.964% |
| COc1cccc(-c2nc(CS(=O)(=O)CC(=O)NCc3ccc4c(c3)OCO4)c(C)o2)c1 | -3.34% |
| COc1ccccc1NC(=O)COc1ccc(/C=N/NC(=O)c2cccnc2)cc1 | -0.257% |
| COCCNC(=O)C1CCCN(c2nn3c(=O)cc(C)nc3s2)C1 (stereo not shown) | 5.77% |
| O=C(O)/C(=C\c1ccco1)NC(=O)c1ccccc1 | 11% |
| CCC1(C)CC2(CCCN(CCC(=O)c3ccccc3)C2)CCO1.Cl (stereo not shown) | 7.55% |
| COc1ccc(OC)c(NC(=O)CCNS(=O)(=O)c2cc(Br)cnc2N)c1 | 7.7% |
| CC(C)=CCC12Oc3cc(O)ccc3C1(O)Oc1cc(O)c([C@H]3C=C(C)CC(c4ccc(O)cc4O)[C@H]3C(=O)c3ccc(O)cc3O)c(O)c1C2=O (stereo partly shown) | -0.572% |
| Cc1ccc(C)n1-c1ccccc1N1CCCCC1 | 16.4% |
| O=C(c1csc2c1CCCCC2)N1CCC2(CC1)OCCO2 | 10.9% |
| COc1ccc(CN([C@H](C)CO)S(=O)(=O)N(Cc2ccccc2)[C@H](CO)C(C)C)cc1 | 7.92% |
| O=C(CN1C(=O)NC2(CCCC2)C1=O)Nc1ccc(C(F)(F)F)cc1 | 9.94% |
| O=S(=O)(Nc1ccncc1)c1cc(Cl)ccc1Cl | 15.2% |
| COc1ccc2oc(=O)c(-c3ccccc3C(=O)N3CCOCC3)cc2c1 | 10.7% |
| COc1ccc(-n2nc(C(=O)NCC(=O)Nc3cc(Cl)c(OC)cc3OC)c3ccccc3c2=O)cc1 | 6.43% |
| COc1ccc(CCC(=O)Nc2ccc(Cn3ccnc3)cc2)cc1 | 10.4% |
| COC(=O)c1cc(S(=O)(=O)n2nc(C)cc2C)c(Cl)cc1Cl | 11.9% |
| CC(C)C[C@H]1CN=C(Nc2ccccc2)N1CC1CCCCCC1 | -16.8% |
| O=C(NC1CC2CCCC(C1)N2C(=O)Nc1ccccc1)c1ccncc1 (stereo not shown) | 0.0447% |
| CCOC(=O)c1ccc2ncc(C(=O)OCC)c(NCCCN3CCOCC3)c2c1 | -13.9% |

| SMILES | hERG current change (%, negative = inhibition) at 1uM |
| --- | --- |
| O=C1c2ccccc2-c2cccc(C(=O)N3CCN(C(=O)c4ccccc4)CC3)c21 | 3.88% |
| CCCN(CC(=O)Nc1ccccc1C)C(=O)c1ccc2c(c1)S(=O)(=O)N=C1CCCCCN12 | 17.6% |
| CCOc1cccc(CN2CCCC(N3CCN(c4cccc(Cl)c4)CC3)C2)c1O (stereo not shown) | 2.48% |
| COC(=O)c1ccc(NC(=S)Nc2ccccc2)cc1 | 6.03% |
| CCOC(=O)C1=C(CS(=O)(=O)c2ccccc2)NC(=O)NC1c1ccc(O)c(OC)c1 (stereo not shown) | 12.5% |
| COc1ccc(C(C)=O)cc1CN1CC=C(c2ccccc2)CC1 | 0.006% |
| Cc1cc(C(=O)Nc2c(C)n(C)n(-c3ccccc3)c2=O)on1 | 15.2% |
| Cc1nc2c3cc(F)ccc3n(Cc3ccccc3)c2s1 | 15.6% |
| CCC(C(=O)N(C(C)C)C(C)C)c1ccccc1 (stereo not shown) | 10.3% |
| O=C(COC(=O)c1cnccn1)Nc1cccc2ccccc12 | -3.66% |
| COc1cc2c(cc1OC)C(c1ccc(C)o1)CC(=O)N2 (stereo not shown) | -0.622% |
| CCOc1ccccc1CN1CCN(Cc2[nH]c3ccccc3c2C)CC1CCO (stereo not shown) | -13% |
| CC(C(=O)Nc1sc2c(c1C#N)CCCCC2)N1C(=O)c2ccccc2C1=O (stereo not shown) | 6.27% |
| O=C1C=C(NC2CCCC2)CC(c2ccccc2)C1 (stereo not shown) | 18.3% |
| COc1cc2c3nc4n(c(=O)c3n(CC(=O)NCC3CCCO3)c2cc1OC)CCS4 (stereo not shown) | 17.3% |
| CC(=O)NC(CC(=O)N(Cc1ccccc1)c1cccc(C)c1)c1ccccc1 (stereo not shown) | 9.41% |
| Cc1cccc(NC(=O)CCCNC(=O)c2ccc(Cl)cc2)n1 | 13.7% |
| C=CCNC(=O)COc1ccc(Oc2ccccc2)cc1 | 2.66% |
| NC(=O)C1(N2CCCCC2)CCN(C(=O)c2cccn3c(=O)c4cc(Cl)ccc4nc23)CC1 | 4.38% |
